Molecular target: Recombinant HLA-G antigen (human) (UniProt P17693)
Assay: monoclonal phage ELISA, Fab on phage, anti-M13 HRP (selection threshold)

B1: 2F1 (Fab clone displayed on phage) (Fab, V domains shown)
VH: EVQLVESGGGLVQPGGSLRLSCAASGFTFSSYAMSWVRQAPGKGLEWVSRISGSGGYIYYADSVKGRFTISRDNSKNTLYLQMNSLRAEDTAVYYCAKEGTSSYRGWMDVWGQGTLVTVSS
VL: [about 100 residues omitted]WTFGQGTKVEIK
Work on B1 yielded an absorbance (OD450) greater than 0.4 OD450.

Reference: patent EP4793288A1
